In PMC5722342:
Results are given in words; binding and its absence hold for the method and conditions named. In cells and extracts the contact can be indirect. Some entries that bind do so weakly or less than the wild type.

Protein sequences, listed by entry. Tags and fused reporters are not part of them.
UniProt Q9UKV5: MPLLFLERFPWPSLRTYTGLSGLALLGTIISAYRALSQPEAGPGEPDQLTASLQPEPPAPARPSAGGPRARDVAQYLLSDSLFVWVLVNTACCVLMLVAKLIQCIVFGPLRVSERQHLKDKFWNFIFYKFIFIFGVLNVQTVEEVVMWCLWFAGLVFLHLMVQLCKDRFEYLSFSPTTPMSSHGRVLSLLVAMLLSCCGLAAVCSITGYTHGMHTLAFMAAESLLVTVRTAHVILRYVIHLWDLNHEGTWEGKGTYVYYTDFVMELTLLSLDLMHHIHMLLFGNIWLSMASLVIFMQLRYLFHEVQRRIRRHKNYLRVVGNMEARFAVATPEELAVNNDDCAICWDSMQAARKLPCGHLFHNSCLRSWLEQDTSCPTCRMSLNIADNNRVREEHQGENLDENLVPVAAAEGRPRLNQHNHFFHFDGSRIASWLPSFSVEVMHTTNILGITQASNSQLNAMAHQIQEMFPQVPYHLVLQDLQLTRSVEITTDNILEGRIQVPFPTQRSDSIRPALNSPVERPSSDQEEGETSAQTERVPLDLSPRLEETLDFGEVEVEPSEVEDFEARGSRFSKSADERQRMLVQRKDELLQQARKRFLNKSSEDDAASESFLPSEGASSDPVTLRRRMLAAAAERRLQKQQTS
UniProt Q99942: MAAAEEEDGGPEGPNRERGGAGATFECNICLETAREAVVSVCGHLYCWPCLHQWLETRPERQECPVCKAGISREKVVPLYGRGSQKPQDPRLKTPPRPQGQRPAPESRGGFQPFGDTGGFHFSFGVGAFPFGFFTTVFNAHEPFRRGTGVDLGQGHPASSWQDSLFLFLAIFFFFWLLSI
UniProt Q86TM6: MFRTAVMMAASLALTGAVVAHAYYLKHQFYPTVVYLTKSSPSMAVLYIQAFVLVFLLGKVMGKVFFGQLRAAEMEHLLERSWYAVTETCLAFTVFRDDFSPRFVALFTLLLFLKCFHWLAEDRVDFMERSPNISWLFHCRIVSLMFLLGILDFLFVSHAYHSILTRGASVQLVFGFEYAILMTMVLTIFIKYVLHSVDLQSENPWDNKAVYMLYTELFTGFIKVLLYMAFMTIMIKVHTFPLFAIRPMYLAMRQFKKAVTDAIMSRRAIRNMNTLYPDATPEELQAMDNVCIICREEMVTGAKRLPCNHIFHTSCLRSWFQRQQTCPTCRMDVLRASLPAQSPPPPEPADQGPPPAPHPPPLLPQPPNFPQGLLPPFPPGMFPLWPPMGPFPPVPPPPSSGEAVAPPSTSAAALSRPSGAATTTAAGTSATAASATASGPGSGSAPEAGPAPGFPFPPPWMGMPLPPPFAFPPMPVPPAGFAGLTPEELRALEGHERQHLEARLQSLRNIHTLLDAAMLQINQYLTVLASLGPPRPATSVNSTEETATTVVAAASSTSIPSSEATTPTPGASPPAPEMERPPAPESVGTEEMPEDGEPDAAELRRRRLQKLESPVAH
UniProt Q7Z434: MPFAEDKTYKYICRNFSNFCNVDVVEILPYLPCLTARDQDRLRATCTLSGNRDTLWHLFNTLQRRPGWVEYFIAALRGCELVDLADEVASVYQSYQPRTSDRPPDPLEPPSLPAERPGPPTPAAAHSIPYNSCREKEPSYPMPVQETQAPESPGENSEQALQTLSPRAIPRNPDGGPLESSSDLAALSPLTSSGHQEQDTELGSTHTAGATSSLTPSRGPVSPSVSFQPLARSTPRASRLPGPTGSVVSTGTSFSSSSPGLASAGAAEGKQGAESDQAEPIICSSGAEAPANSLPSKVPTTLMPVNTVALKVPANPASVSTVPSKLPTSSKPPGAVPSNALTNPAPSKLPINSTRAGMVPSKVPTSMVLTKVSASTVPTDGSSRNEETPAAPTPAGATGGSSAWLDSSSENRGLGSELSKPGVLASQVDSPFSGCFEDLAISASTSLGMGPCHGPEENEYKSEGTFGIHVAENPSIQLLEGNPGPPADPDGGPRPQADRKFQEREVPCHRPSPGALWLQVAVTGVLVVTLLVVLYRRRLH

Assays:
[1] = target: GP78 (UniProt Q9UKV5); assay: co-IP; HEK293T cells transfected with the indicated plasmids, in some panels with shRNA against iRhom2, GP78 or RNF5; NP-40 lysis buffer; immunoprecipitation and immunoblot with the indicated antibodies (Fig 5C, 6A, 6C, 7A, 7E, 7F, 8A, S7 Fig)
[2] = target: RNF5 (endogenous) (human (endogenous in HEK293 and HEK293T)) (UniProt Q99942); assay: co-IP
[3] = target: GP78 (UniProt Q9UKV5); assay: co-IP
[4] = target: HRD1 (UniProt Q86TM6); assay: co-IP
[5] = target: VCP (UniProt P55072); assay: co-IP
[6] = target: RNF5 (UniProt Q99942); assay: co-IP; HEK293T cells transfected with the indicated plasmids, in some panels with shRNA against iRhom2, GP78 or RNF5; NP-40 lysis buffer; immunoprecipitation and immunoblot with the indicated antibodies (Fig 5C, 6A, 6C, 7A, 7E, 7F, 8A, S7 Fig)

Q: RNF5 (from UniProt Q99942 1-180) was tested. Which binding [1] did it give?
A: binds

Q: How did the binding [2] turn out when “VISA (endogenous) (from UniProt Q7Z434 1-540)” was run?
A: binds

Q: What does the source list for VISA (from UniProt Q7Z434 1-540)?
A: binding [3]: binds; binding [4]: binds; binding [5]: binds; binding [6]: binds
